The full ranking holds about 33,000 sequences; the median of “E-score (-0.5 to 0.5)” is about -0.016, and the highest 2% start at about 0.31. The list shows a part of the results.
target: Cst6 (UniProt P40535); test: PBM E-score (8-mer binding enrichment) (E-score (-0.5 to 0.5)); higher = stronger / more preferred TF binding; most listed sequences are background and not binding sites; conditions: protein concentration: 200 nM; construct: GST-DNA-binding domain
Summary of the method: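 Universal all-10-mer Agilent arrays, fresh or stripped once, were converted to double-stranded form by primer extension. GST-tagged yeast transcription factors from PURExpress in vitro transcription/translation, full-length or DNA-binding domain only, were applied at about 100-200 nM and detected with fluorescent anti-GST. After masliner normalisation, the Universal PBM Analysis Suite scored each ungapped eight-base word together with its reverse complement by E-score.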

| Sequence | PBM E-score |
| --- | --- |
| AGACGGTC | -0.164 |
| TGAGAGAA | 0.236 |
| CCAAGTGG | -0.215 |
| TATATTCA | 0.194 |
| GTATTGCA | 0.0191 |
| CCCGATAA | -0.0989 |
| TCTGTGAA | 0.0699 |
| CAGTTATA | -0.0382 |
| TAGTACCA | -0.0672 |
| CGCTCGGA | -0.105 |
| AACCCCTC | -0.279 |
| CCGTAGAC | -0.153 |
| ACCTTCCT | -0.15 |
| CAATAACG | 0.19 |
| CAAAAAAA | 0.32 |
| CATCAGCG | 0.044 |
| TATATGGA | 0.0562 |
| ACGTGTTC | 0.0516 |
| TACGCTAA | 0.103 |
| AGTTCCAC | -0.145 |
| ATCCAAAC | 0.0285 |
| CGGCGCGC | 0.242 |
| AACCAGCC | -0.137 |
| AGATTCAC | -0.122 |
| CCTTGCCC | -0.127 |

| Sequence | PBM E-score |
| --- | --- |
| AGCCAAGG | -0.0791 |
| AAAACTTA | 0.217 |
| TCCGTCAA | 0.124 |
| ATAACTTG | 0.0655 |
| ATTTACAA | 0.254 |
| AATTTCAG | 0.144 |
| AATAACCG | 0.0476 |
| AGGGGGGC | -0.41 |
| GAAGCGGC | 0.0855 |
| AACTAGCC | -0.211 |
| GACGTGAA | 0.142 |
| ACAGCAAG | 0.0827 |
| ACGGCCCC | 0.153 |
| CTAGTCGC | -0.299 |
| CAGGAACA | -0.155 |
| CTAGACAA | 0.0226 |
| GTTTGTTA | 0.198 |
| AAACTGCG | -0.0237 |
| ATGCGCGG | 0.113 |
| ATTGATCG | 0.0409 |
| ATGGCAGA | 0.0116 |
| ATGATGCG | 0.296 |
| CCGCGCCG | 0.198 |
| CCCGAGTC | -0.141 |
| CAACGTGA | -0.00233 |

| Sequence | PBM E-score |
| --- | --- |
| CACACCAC | -0.00864 |
| AATCCTTC | -0.119 |
| TACGTTCA | 0.235 |
| GGTCCGAA | 0.0255 |
| ACACCAAC | -0.0059 |
| GCGGAACC | -0.0959 |
| ACGCTACA | 0.0647 |
| TCACAGGA | 0.0449 |
| CCATCTTC | 0.0366 |
| TACATATA | 0.254 |
| AGACTAGA | -0.153 |
| TGTTGTAA | 0.255 |
| CAGTCCAA | -0.216 |
| ACACGAGA | -0.107 |
| ATGGGCCA | -0.128 |
| AATATAAC | 0.17 |
| AAATGGTT | 0.0669 |
| CGCCCGAC | -0.0607 |
| CTAGTACC | -0.239 |
| GTAGGATA | -0.0496 |
| ACGAGAAG | 0.00653 |
| AATCCACG | 0.00234 |
| TAAGCATA | 0.128 |
| ATGAAGTC | 0.237 |
| ACGTGATA | 0.208 |

| Sequence | PBM E-score |
| --- | --- |
| AAAAAAGA | 0.118 |
| CTACTCGA | 0.00648 |
| TCACCGAA | 0.167 |
| AATTAGCA | 0.209 |
| AGCGGACA | -0.187 |
| ACATAAAC | 0.27 |
| AATAAACC | 0.166 |
| ATTAACGC | 0.0112 |
| TCGCCAGA | -0.0255 |
| AGACAGCA | 0.0272 |
| CATACTCG | 0.0887 |
| ACCGAAAG | -0.0323 |
| AAGTGTTA | -0.00598 |
| TACTACAA | 0.231 |
| TCAATACA | 0.217 |
| AATGAAAG | 0.168 |
| AAGAGTCA | -0.119 |
| AGCGAGTG | 0.0192 |
| GTGTGCTA | -0.0299 |
| ATAACACC | 0.106 |
| CATGCGTC | 0.0231 |
| ATATCTCG | 0.0254 |
| AGCCGAGC | -0.0393 |
| GAGCGAAC | -0.239 |
| CGGTATGA | 0.267 |

| Sequence | PBM E-score |
| --- | --- |
| GAGCGTCA | 0.271 |
| GGTGTCTA | 0.0529 |
| AGGGTAGC | -0.17 |
| GGGTGAAA | 0.0534 |
| AGATTAAG | 0.0538 |
| AGTCGACG | 0.145 |
| ATTAACTC | 0.198 |
| TGGCGCAA | 0.0721 |
| GCCGTGAA | 0.184 |
| AGAGCACC | -0.301 |
| TGTTCTAA | 0.103 |
| AACGGGAC | -0.193 |
| CACCCCGA | -0.145 |
| GCACGTCC | -0.0855 |
| CGCGCGCA | 0.231 |
| ATCCTCGC | -0.0897 |
| ATAAGCAG | 0.0195 |
| ACCCGGGC | -0.281 |
| ACTATACC | 0.0231 |
| CGTACGGA | 0.168 |
| CCTAGAGG | -0.356 |
| AAGTTACT | 0.0465 |
| GTTGACCA | 0.00334 |
| ACTACCTA | 0.0222 |
| CCCTAGCA | -0.251 |

| Sequence | PBM E-score |
| --- | --- |
| GCTCTGCC | -0.23 |
| CGACGAAG | 0.0467 |
| GTGTAGAA | -0.0168 |
| CTATAGAC | -0.089 |
| AGCTTGGG | -0.157 |
| GGTTTGCA | -0.0562 |
| CCAAAGCA | -0.0223 |
| AATTACCC | 0.0706 |
| CCAGAACC | -0.164 |
| CAGAATGA | 0.14 |
| GAAATGAA | 0.237 |
| ATCCTTGC | -0.162 |
| AACCATTG | 0.173 |
| CGTTCAAA | -0.00443 |
| CATTGCGA | 0.123 |
| AGTTCCTG | -0.204 |
| TGGCTCAA | -0.0112 |
| AATCTGAT | 0.0951 |
| CCTCTTAC | 0.0218 |
| GGGTTAAC | -0.0244 |
| AGCAAACA | 0.0308 |
| CAGCGTCA | 0.279 |
| CCAGGTCA | -0.242 |
| CATTGAGA | 0.0681 |
| GGATTCCC | -0.356 |

| Sequence | PBM E-score |
| --- | --- |
| CACGGGCA | -0.142 |
| CAGTAACC | -0.0172 |
| GGTTATCA | -0.102 |
| AACTTTGT | 0.11 |
| CTTCTGGC | -0.141 |
| ATTCCCCA | -0.282 |
| CTTTTGTA | 0.221 |
| AGCGAGAC | -0.0779 |
| CTCATGCC | -0.0552 |
| ACGACGGG | -0.0596 |
| GTGGTGAA | -0.0462 |
| TGCAACCA | -0.109 |
| CCTGGACA | -0.229 |
| CCTAGTAC | -0.139 |
| CTGCACCA | -0.21 |
| CCAGGCAA | -0.114 |
| ATATAATA | 0.31 |
| GGGTAACA | -0.0614 |
| CACGCGTC | 0.171 |
| CGCCATGC | 0.0733 |
| CGCCGTGA | 0.221 |
| CACGGGGC | -0.0119 |
| AGAGGTCA | -0.145 |
| CGTGGAAG | 0.0364 |
| CGCCTTAA | 0.107 |

| Sequence | PBM E-score |
| --- | --- |
| GGGGGACA | -0.393 |
| CATTCACG | 0.0685 |
| GGTGTGGA | -0.0926 |
| GGACCTAA | -0.105 |
| ATCACTTC | 0.19 |
| CCCTTAAC | -0.31 |
| AGACCCTC | -0.391 |
| CAGTACTG | 0.0651 |
| ATGGATGC | -0.155 |
| ATTAACCG | 0.116 |
| GACTCTAC | -0.235 |
| TACTGGAA | 0.064 |
| CGGTCTAG | -0.125 |
| GGAGGGCA | -0.132 |
| AAAATACG | 0.181 |
| CAATTTCA | 0.145 |
| CACAGCGC | -0.0545 |
| GTCCTAAC | -0.0569 |
| CAATCGTA | 0.206 |
| AAGGGGGG | -0.414 |
| ACTAGGGC | -0.27 |
| CGCCGCCG | 0.0819 |
| ATCCAAAG | 0.141 |
| GGACCCTA | -0.284 |
| GCTGCGGA | -0.0606 |

| Sequence | PBM E-score |
| --- | --- |
| GTGTATCA | 0.186 |
| CAGCACAC | -0.254 |
| ACAACAAG | 0.0823 |
| ACGTGCAT | 0.104 |
| CTAGCACA | -0.248 |
| ACTTCCCC | -0.155 |
| TTCGACAA | 0.0645 |
| CCCCAACG | -0.0952 |
| CGAGTAAC | 0.0445 |
| ACTCGTCA | 0.351 |
| CTTAGGGA | -0.217 |
| AAGTTAGG | 0.00013 |
| AGTGTCAG | -0.144 |
| ACTCCATC | -0.0515 |
| GTGTGTGA | 0.176 |
| GAATGGTA | 0.0416 |
| ATGGCAAC | 0.164 |
| AAATCGTA | 0.211 |
| GTTCTTCA | 0.139 |

Source: the supplement of paper PMC3334620
